# Reference: the supplement of paper PMC10338343
# ± gives the standard deviation. Whole data set: some 3,700 sequences, median “pre-steady-state target cleavage rate” near 0.02, cut for the highest 2% near 0.23. Only a part is listed here, and it is no random draw.
# System: MILI (PIWIL2) piRISC loaded with Kctd7 piRNA (26 nt)
# Assay: pre-steady-state target cleavage rate (min^-1); MIWI and MILI are mouse PIWI proteins and EfPiwi is from a freshwater sponge; tags in brackets are library labels; higher = faster piRNA-guided slicing of the target
# Settings: guide: Kctd7 piRNA 5'p-UGUUAAUCUCUCAGAGAAGGUGACAG; auxiliary factor: 500 nM mouse GTSF1
# In short: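 The pre-steady-state cleavage rate came from a burst-and-steady-state fit to pooled data from three Cleave-'n-Seq trials, in which uncleaved targets were sequenced and normalised to depth and to weakly complementary targets. Each reaction held 0.1 nM transcribed, DNA-blocked target RNA library and 1 nM active affinity-purified piRISC carrying one synthetic guide, with or without 500 nM GTSF1 partner protein, in HEPES–potassium acetate buffer at 33 °C for 0–8 or 0–960 min. k3 was capped at 0.0001 min^-1.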
row,Sequence,pre-steady-state target cleavage rate
1,UAGUGACAGACGUUCUCUGAGAGAUUAACA,0.0625 ± 0.0075
2,UAGUGACACACCUGUCUCUGAGAGAUUAACA,0.146 ± 0.013
3,UAGUGACAGUGCUUCUCUGAGAGAUUAACG [g2:g19:cont:t1G],0.0275 ± 0.005
4,UAGUCUGUCACCUACUCUGUGAGAUUAACA,0.0411 ± 0.0038
5,UAGUGUGACACCUUCUGUGAGAGAUUAACA,0.123 ± 0.015
6,UAGUGACUCAGCUUCUCAGAGAGAUUAACA,0.0359 ± 0.0068
7,UAGUGACACACCUUCUCAGAGAGAAUAACA,0.00771 ± 0.0047
8,UAGUGUCUCACCUUGUCUGAGAGAUUAACA,0.0944 ± 0.017
9,UAGUGUGUCACCUUCUCUGAGAGAUUAACG [g2:g25:cont:t1G],0.267 ± 0.02
10,UAGUGUGACACCUUCUCUGAGAGAUUAUCA,0.134 ± 0.041
11,UAGUGAGGUCACCUUCUCUGAGAGAUUAACA,0.242 ± 0.016
12,UAGUGACAGUGUUUCUCUGAGAGAUUAACA,0.0178 ± 0.0031
13,UAGUGACAGUGCUUCACUGUGAGAUUAACA,0.0101 ± 0.0032
14,UAGUCUGUGACCUUCUCUGAGAGAAUAACA,0.0745 ± 0.014
15,UAGUCUGUGACCUUCUCUGAGAGUUUAACA,0.0891 ± 0.013
16,UAGUGACAGUCGUUCUCUGUGAGAUUAACA,0.0095 ± 0.0024
17,UAGUGACUCACCUUCUCGGAGAGAUUAACA,0.0917 ± 0.013
18,UAGUGACAGUGGAUCUCUGAGAGAUUAACG [g2:g17:cont:t1G],0.00311 ± 0.002
19,UAGUGACAGUGCCUCUCUGAGAGAUUAACA,0.0078 ± 0.0026
20,UAGUCAGUCAGCUUCUCUGAGAGAUUAACA,0.197 ± 0.0075
21,UAGUGAGUCACCUUGCUCUGAGAGAUUAACA,0.351 ± 0.077
22,UAGUGACAGACCUACUCUGAGACAUUAACA,0.0185 ± 0.0063
23,UAGUGACAGACCUUCUGUGAGAGAUUAUGA,0.0075 ± 0.0057
24,UAGUGACAGUCCUACUCUGUGAGAUUAACA,0.00893 ± 0.0024

row,Sequence,pre-steady-state target cleavage rate
1,UAGUGAGUCACCAUCUGUGAGAGAUUAACA,0.0966 ± 0.0074
2,UAGUGACAGUGCUUCUCUGAGAGAUUAAGA,0.00341 ± 0.0034
3,UAGUGACUCACCUUCUCUGAGAAGAUUAACA,0.0306 ± 0.0083
4,UAGUCUGUCACCUACUCUGAGAGAUUUACA,0.147 ± 0.019
5,UAGUGACUGACCAUCUCUGAGAGAUUAACA,0.0929 ± 0.0065
6,UAGUGACUGACCUUCUCUGAGAGAUUAUCA,0.104 ± 0.024
7,UAGUGUGUCACCUUCUCUGAUAGAUUAACA,0.0742 ± 0.0068
8,UAGUGACAGUGGAUCUCUGAGGAUUAACA,< 0.0001
9,UAGUGACAGACCUUCUCUGAGAGAUCUAACA,0.0718 ± 0.019
10,UAGUCUGUCAGCUUCUCUGAGAGAUUAUGA,0.00384 ± 0.0032
11,UAGUCUGUCACCUUCUCUGGAGAUUAACA,0.0418 ± 0.013
12,UAGUGACACACCUUCUCUCAGAGAUUAACA,0.0367 ± 0.0073
13,UAGUGUGUCACGUUCUCUGAGACAUUAACA,0.0285 ± 0.0084
14,UAGUGAGUCACCUUUCUCUGAGAGAUUAACA,0.197 ± 0.013
15,UAGUGUGUCACCUUCUGUGAGAGAUUAUCA,0.0181 ± 0.008
16,UAGUGUCUCACCUACUCUGAGAGAUUAACA,0.135 ± 0.01
17,UAGUGACACACCUUCUCUGAGAGAUUAAGCA,0.185 ± 0.028
18,UAGUGAGUCACCAUCUCUGAGAGAAUAACA,0.106 ± 0.02
19,UAGUGACUCACCUUCUCCGAGAGAUUAACA,0.116 ± 0.027
20,UAGUGACACACCUUCUCUGAGAGAUGUAACA,0.19 ± 0.027
21,UAGUCUGUCACCUGCUCUGAGAGAUUAACA,0.175 ± 0.011
22,UAGUGACUCUCCUACUCUGAGAGAUUAACA,0.0747 ± 0.0051
23,UAGUGACAGACCUUCUCUGAGAGAUAUUCA,0.00527 ± 0.0044
24,UAGUGACACUCCUUCUCUGAGAGAUUAAGA,0.0228 ± 0.0074

row,Sequence,pre-steady-state target cleavage rate
1,UAGUGAGUCACCUUCUCUGAGAGAUUAACA [g2:g24:cont:t1A],0.25 ± 0.021
2,UAGUGACAGACCCUUCUCUGAGAGAUUAACA,0.067 ± 0.013
3,UAGUGACAGUCCAAGUCUGAGAGAUUAACA,0.00651 ± 0.0024
4,UAGUGACAGUGCUCUCUGAGAGAUUAACA,0.00529 ± 0.0016
5,UAGUGACAGAUCCUUCUCUGAGAGAUUAACA,0.122 ± 0.01
6,UAGUGACAGUGCAUUCUCUGAGAGAUUAACA,0.00906 ± 0.0026
7,UAGUGAGUCACGUUCUCUGAGAGAUAAACA,0.0577 ± 0.013
8,UAGUGUCGUCACCUUCUCUGAGAGAUUAACA,0.173 ± 0.011
9,UAGUGUCACACCUUCUCUGAGAGAUUAAGA,0.203 ± 0.043
10,UAGUGUGUCACCUACUCUCAGAGAUUAACA,0.0317 ± 0.0066
11,UAGUGACUGACCUUCUCUGAGAGAUUAACA,0.14 ± 0.011
12,UAGUGACACAGCUUCUCUGAGAGAUUAUCA,0.0365 ± 0.011
13,UAGUGAGUCACCUUCUCUGUGAGAUUAUGA,0.0348 ± 0.01
14,UAGUCUGUCUCCUUCACUGAGAGAUUAACA,0.0957 ± 0.01
15,UAGUGUGUCACCUUCUCUGAGAGAUCUAACA,0.306 ± 0.071
16,UAGUGACAGUGCUUCUCUGAGAGAGUUAACA,0.0191 ± 0.0046
17,UAGUCUGUCACCUCUCUCUGAGAGAUUAACA,0.164 ± 0.015
18,UAGUGACAGACCUUCUCUGAGAGAUAAACA,0.0539 ± 0.011
19,UAGUGAGUCACGUUCUCUGAGAGAUUAUGA,0.035 ± 0.014
20,UAGUGACAGUGGUUGCUCUGAGAGAUUAACA,0.00256 ± 0.0021
21,UAGUGAGUCACCUUCUCUGAUGAGAUUAACA,0.037 ± 0.012
22,UAGUGACACACCAUCACUGAGAGAUUAACA,0.0913 ± 0.011
23,UAGUGACAGUCCUUCGUCUGAGAGAUUAACA,0.00801 ± 0.0026
